# The supplement of paper PMC12217912
# Some of the results follow. Sequences were assembled here from the parent chain. Values near 0.05 are background.
# B1: TEV protease; numbered along this chain (parent)
# chain: MGESLFKGPRDYNPISSSICHLTNESDGHTTSLYGIGFGPFIITNKHLFRRNNGTLVVQSLHGVFKVKDTTTLQQHLVDGRDMIIIRMPKDFPPFPQKLKFREPQREERICLVTTNFQTKSMSSMVSDTSCTFPSGDGIFWKHWIQTKDGQCGSPLVSTRDGFIVGIHSASNFTNTNNYFTSVPKNFMELLTNQEAQQWVSGWRLNADSVLWGGHKVFMVKPEEPFQPVKEATQL
# Variants of: B1
# Assay: raw area under fraction-flipped curve 0-4 h after induction (AUC4h, not background-subtracted), DNA-recorder readout of cleavage of the substrate (dimensionless); higher = more cleavage of the substrate by the protease variant
# Details: temperature: 34 °C; time window: 0-4 h after rhamnose induction
# Description: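 In vivo DNA recorder in E. coli TOP10(DE3) ΔrhaA at 34 °C. Each TEVp single-site mutant (parent TEVp 0) is paired with a single-site variant of the 7-mer TEVs (canonical ENLYFQ|S). The substrate sits between flexible linkers in a Bxb1-sfGFP-TEVs-SsrA fusion, so cleavage stabilises Bxb1 and speeds flipping of a recombination array, read by NGS. The value is the raw area under the fraction-flipped curve over 0-4 h after rhamnose induction (AUC4h), with ≥20 reads per time point. It is not background-subtracted; inactive controls average about 0.047.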
# 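Further: Bxb1 expression induced with 0.2% (w/v) L-rhamnose at OD600 near 0.5, cultures sampled hourly, flipped fraction per protease–substrate barcode pair counted by paired-end Illumina sequencing.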
Variant,area with substrate ENLYAQS,area with substrate ENLYCQS,area with substrate ENLYDQS,area with substrate ENLYEQS,area with substrate ENLYGQS,area with substrate ENLYHQS,area with substrate ENLYIQS,area with substrate ENLYMQS,area with substrate ENLYPQS,area with substrate ENLYQQS,area with substrate ENLYRQS,area with substrate ENLYSQS,area with substrate ENLYTQS,area with substrate ENLYVQS,area with substrate ENLYWQS,area with substrate ENLYYQS,area with substrate ENLYKQS,area with substrate ENLYLQS,area with substrate ENLYNQS
T30L,0.0798,0.0782,0.051,0.0714,0.0706,0.0729,0.102,0.101,0.0786,0.0571,0.0625,0.0707,0.087,0.0802,0.0862,0.0785,,,
F226N,0.0808,0.106,0.067,,0.0691,0.073,0.147,0.0619,0.0761,0.0711,,,0.0984,0.0975,0.0829,0.0783,0.0688,0.0927,0.0616
I43L,0.0542,,0.0638,0.0792,0.0658,,0.133,0.0892,0.0656,0.061,0.0828,0.0604,,0.0955,0.0666,0.0782,0.0521,,0.0779
S121W,0.0692,,0.0691,0.0592,,0.0734,,0.0932,,0.07,0.0526,0.0772,,,,,0.0514,0.0615,0.0737
I86V,0.0859,,0.0672,0.0821,0.0603,0.0749,0.116,,0.0757,0.0606,0.0623,,0.089,0.106,0.0705,0.0715,,0.082,0.0704
C111S,0.0875,0.0815,0.0671,0.0773,0.0541,0.0589,0.118,0.081,0.0663,0.0674,0.0481,0.0724,0.0843,0.112,0.0432,0.0569,0.0664,,0.0499
I19V,0.0768,0.0801,0.0681,0.0513,,0.0721,0.141,,,0.0561,,,0.0858,0.116,0.0694,,0.0644,0.0747,0.0662
I19Y,0.0667,,0.0494,0.0899,0.0658,0.0555,0.0918,0.0746,0.0557,,0.0617,0.0458,,0.0733,0.0466,0.0599,0.0488,,0.06
I19P,0.0356,,0.0446,0.0466,0.0481,0.0427,0.0464,0.0435,0.0396,0.0405,0.0439,,0.0443,0.0425,0.0506,0.0467,0.047,0.0446,0.0443
I19K,0.0524,,,0.0536,,0.0251,0.0612,0.0753,,,,,0.0563,,0.049,0.0572,0.0538,,
I42R,0.0476,0.0306,0.0492,0.0458,0.0344,0.0496,0.044,0.0477,0.0471,0.0552,0.0497,0.0722,0.0456,0.0577,0.043,0.0441,0.0429,0.0474,0.0534
S123D,0.0696,,0.0792,0.0658,0.0688,0.0618,0.124,0.0848,0.0798,0.0708,0.0663,,0.0784,0.108,0.0753,0.061,0.0506,0.0713,0.0705
